Measured values taken from paper PMC4336329 (PLoS ONE, 2015).
Screen size: about 310,000 compounds; about 14,000 (4.5%) showed an effect of 50% or more. The effect is printed as a negative number. The list shows a part of the results.

Target: human ether-à-go-go-related gene (hERG) potassium channel (human, UniProt Q12809)
Test: primary screen, population patch clamp on CHO cells stably expressing hERG
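Further: peak tail current of the secondary pulse compared with the same well before compound.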

Sequence of human ether-à-go-go-related gene (hERG) potassium channel (Q12809 whole entry, looked up): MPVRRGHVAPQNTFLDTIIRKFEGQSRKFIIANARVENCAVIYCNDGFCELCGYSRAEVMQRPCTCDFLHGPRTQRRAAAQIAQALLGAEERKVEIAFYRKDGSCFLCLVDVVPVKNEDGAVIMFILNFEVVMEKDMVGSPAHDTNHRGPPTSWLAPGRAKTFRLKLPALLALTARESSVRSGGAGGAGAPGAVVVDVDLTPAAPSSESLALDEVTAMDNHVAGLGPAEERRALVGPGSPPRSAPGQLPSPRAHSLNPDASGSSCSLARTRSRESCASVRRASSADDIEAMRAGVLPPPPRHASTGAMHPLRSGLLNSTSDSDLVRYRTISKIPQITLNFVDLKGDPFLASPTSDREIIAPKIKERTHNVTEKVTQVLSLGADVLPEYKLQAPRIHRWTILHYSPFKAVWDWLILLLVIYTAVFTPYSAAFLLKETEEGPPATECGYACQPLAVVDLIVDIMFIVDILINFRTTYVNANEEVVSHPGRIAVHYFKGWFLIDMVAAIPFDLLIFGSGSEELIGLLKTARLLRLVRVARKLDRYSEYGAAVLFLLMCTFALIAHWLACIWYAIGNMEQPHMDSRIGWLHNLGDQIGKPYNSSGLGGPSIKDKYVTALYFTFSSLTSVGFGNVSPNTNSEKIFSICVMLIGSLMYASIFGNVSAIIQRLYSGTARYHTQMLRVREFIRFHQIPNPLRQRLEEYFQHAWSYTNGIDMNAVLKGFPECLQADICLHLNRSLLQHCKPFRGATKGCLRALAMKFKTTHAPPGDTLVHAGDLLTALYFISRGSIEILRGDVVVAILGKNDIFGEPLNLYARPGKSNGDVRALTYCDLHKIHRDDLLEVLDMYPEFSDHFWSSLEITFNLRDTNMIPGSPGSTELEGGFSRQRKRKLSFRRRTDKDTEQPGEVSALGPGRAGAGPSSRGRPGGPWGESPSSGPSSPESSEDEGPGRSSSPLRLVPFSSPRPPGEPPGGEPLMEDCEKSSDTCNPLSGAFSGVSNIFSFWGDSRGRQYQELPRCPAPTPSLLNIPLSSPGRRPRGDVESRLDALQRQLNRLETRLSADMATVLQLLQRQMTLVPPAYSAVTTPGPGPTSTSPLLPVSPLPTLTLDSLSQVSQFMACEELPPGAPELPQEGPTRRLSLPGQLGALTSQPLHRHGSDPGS

Row | SMILES | hERG current change (%, negative = inhibition) at 10uM
1 | CCc1c(C)sc(NC(=O)c2cnn3cccnc23)c1C#N | 5.01%
2 | C/C(=N\NC(=O)c1cc(-c2ccccc2C)nc2ccccc12)c1cccnc1 | -10.3%
3 | CCOC(=O)/C(C(=Nc1ccccc1)Nc1ccccc1)=C(\C)O | 7.35%
4 | COc1ccc(C=C(c2nc3ccccc3s2)c2nc3ccccc3s2)cc1O | 3.94%
5 | Cc1cc([N+](=O)[O-])nn1CCC(=O)Nc1nccs1 | 11.1%
6 | COc1ccccc1NC(=O)CSc1nnnn1-c1ccc(C(=O)O)cc1 | 13.3%
7 | c1cncc(CNC2=NCCCCC2)c1 | 14.3%
8 | CCCCCC(=O)N1CCN(CCN=CC2=C(O)CC(c3ccc(OC)cc3)CC2=O)CC1 (stereo not drawn) | -74.1%
9 | NC(CC(=O)O)c1cccc(OCc2ccccc2)c1 (stereo not drawn) | 5.65%
10 | COc1cccc(/C=N/n2c(-c3n[nH]c4c3CCC4)n[nH]c2=S)c1OC | 14.1%
11 | Cc1ccc(NC(=O)CN(Cc2ccccc2)S(C)(=O)=O)cc1C | -17%
12 | N#Cc1sc(C(N)=O)c(-c2ccccc2)c1-c1ccccc1 | 9.86%
13 | CC(=O)Nc1sc(C)c(C)c1C(=O)OCC(=O)NCc1ccc(Cl)cc1 | 4.69%
14 | CC1CCN(c2nc(-c3cccnc3)nc3scc(-c4ccccc4)c23)CC1 | 15.4%
15 | O=C(NCCCCC(NC(=O)C1CCCCC1)C(=O)O)c1ccccc1 (stereo not drawn) | 8.78%
16 | CCCNC(=O)c1nn2cc(Br)cnc2c1Br | -69.2%
17 | CN(C)/C=C(\C#N)C(=O)N/N=C(\CC(=O)C(F)(F)F)c1ccco1 | 29.3%
18 | Cc1cc(C(=O)C(C)OC(=O)c2ccc(NC(=O)CC#N)cc2)c(C)n1-c1ccc(OC(F)F)cc1 (stereo not drawn) | 5.26%
19 | CC1=CC(C)(C)N(C(=O)CSc2nncn2C)c2ccccc21 | 2.16%

Row | SMILES | hERG current change (%, negative = inhibition) at 10uM
20 | O=C(COC(=O)/C=C/c1cccc(Br)c1)NC1CCCCC1 | 15%
21 | CCCNC(=O)c1ccccc1C(=O)NC1(C(=O)NCCC)CCCC1 | 19.8%
22 | O=C(O)c1cccc(NC(=O)c2ccc3c(c2)C(=O)N(c2cccc([N+](=O)[O-])c2)C3=O)c1 | 23.4%
23 | COc1ccc(N2CCN(C(=O)CN(c3ccc(Br)cc3)S(C)(=O)=O)CC2)cc1 | -19.2%
24 | O=C(NCCN1CCCC1)C1CCC(=O)N(CCCN2CCOCC2)C1 (stereo not drawn) | 14.8%
25 | CCOc1ccc(NS(=O)(=O)c2ccc3[nH]c(=O)c(=O)[nH]c3c2)cc1 | 12.5%
26 | Cc1ccccc1CNS(=O)(=O)c1csc(C(N)=O)c1 | 12.8%
27 | O=C(NCCNC(=O)c1ccc(Br)o1)c1ccc(Br)o1 | -4%
28 | CCOC(=O)c1c(C=O)c(C)n(Cc2ccccc2)c1C | -23.2%
29 | COc1ccccc1NS(=O)(=O)c1c(C)[nH]c(C)c1C(=O)N1CCCC1 | 19.7%
30 | CCOP(=O)(O)c1ccccc1OCCOCCOc1ccccc1P(=O)(O)OCC | 8.94%
31 | COc1ccc(OCCCC(=O)N(C)CC(=O)Nc2ccccc2Cl)cc1 | -5.61%
32 | CN=c1scc(-c2ccccc2F)n1/N=C/c1ccc[nH]1 | -7.64%
33 | Cn1c(=O)c(NC(=O)c2ccccc2)c2n(c1=S)CCCCC2 | -1.47%
34 | C/C(=N\NS(=O)(=O)c1ccccc1)c1cc(Cl)cc(Cl)c1O | 8.47%
35 | C/C(=N\N=C(N)N)c1ccccc1 | 11.2%
36 | COCCn1c(SCC(=O)c2ccccc2)nc2c(c1=O)SC(C)C2 (stereo not drawn) | -25.8%
37 | CCOC(=O)CNC(=O)COc1coc(CN2CCN(c3ccccc3)CC2)cc1=O | 3.41%
38 | Brc1cnc2nc[nH]c2c1 | 24.9%

Row | SMILES | hERG current change (%, negative = inhibition) at 10uM
39 | Nc1c(C(=O)N2CCOCC2)oc2ccccc12 | 20.5%
40 | CC(=O)N1N=C(c2ccc(Cl)cc2)CC1c1ccc([N+](=O)[O-])cc1 (stereo not drawn) | 11.8%
41 | COc1cc(NC(=O)CN2C(=O)NC(C)(c3ccccc3)C2=O)c(C)cc1[N+](=O)[O-] (stereo not drawn) | -12%
42 | NC1=NC(=Nc2ccc(Cl)cc2)c2ccccc21 | -3.81%
43 | Cn1c(SCC(=O)Nc2cccc(Br)c2)nnc1-c1cc2ccccc2o1 | 13.2%
44 | CN1[C@@H]2CC[C@H]1CC(OC1c3ccccc3CCc3ccccc31)C2.O=C(O)CC(O)(CC(=O)O)C(=O)O (stereo partly drawn) | -42.6%
45 | O=C(C#Cc1ccccc1)NCc1ccccc1F | -2.39%
46 | CCc1nccn1S(=O)(=O)c1ccccc1[N+](=O)[O-] | 3.92%
47 | COc1ccc2c(c1)c(C)cc[n+]2Cc1ccccc1.[Cl-] | 23.1%
48 | CCOC(=O)c1sc(NC(=O)CCN2CCN(C)CC2)c(C(=O)OCC)c1C | -79%
49 | O=C(Nc1cccc(-c2ccc(N3CCCCC3)nn2)c1)c1ccco1 | -28.7%
50 | CC(C)CS(=O)(=O)C1=NSC2=NC(=O)/C(=C\c3ccc(OC(=O)c4ccco4)cc3)C(=N)N21 | 10.9%
51 | O=[N+]([O-])c1cccc(-c2cn3ccccc3n2)c1 | 12.8%
52 | O=C(NC1CC1)C1CCN(C2CCN(C(=O)CSc3ccccc3)CC2)CC1 | -3.98%
53 | COc1ccccc1C(O)(C(=O)NNc1cccc(C)c1)c1ccccc1OC | 4.87%
54 | COc1ccc(C(=O)C2CCCN(Cc3ccc4nonc4c3)C2)cc1F (stereo not drawn) | -41.1%
55 | CC1(C)Cc2c(c(-c3ccco3)nc3n[nH]c(N)c23)CO1 | -6.9%
56 | CCC1(C)CC2(CCCN(CCC(O)(c3ccccc3)c3ccccc3)C2)CCO1.Cl (stereo not drawn) | -45.7%
57 | Cc1cc(C(=O)OCC(=O)NCCc2ccccc2)c2ccccc2n1 | -17.7%
